± gives the standard deviation of the averaged measurements. Whole data set: some 33,000 sequences, median “E-score (dimensionless, -0.5 to 0.5)” near -0.049, cut for the highest 2% near 0.37. This is one part of the list.
Test system: T1, PmTbr T-box DNA-binding domain (GST fusion)
T1 sequence: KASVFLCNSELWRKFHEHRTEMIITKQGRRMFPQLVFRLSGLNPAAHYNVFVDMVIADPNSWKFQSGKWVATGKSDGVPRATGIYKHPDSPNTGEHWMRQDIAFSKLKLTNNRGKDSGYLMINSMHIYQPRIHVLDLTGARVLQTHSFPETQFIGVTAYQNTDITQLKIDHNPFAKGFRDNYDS
Assay: PBM E-score of 8-mer (E-score (dimensionless, -0.5 to 0.5)); Tbr is Tbrain of the sea star Patiria miniata (Pm) or the sea urchin Strongylocentrotus purpuratus (Sp); higher = stronger binding preference; most listed sequences are background and not binding sites
Conditions: the construct has about 5 more residues each side
Summary of the method: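 Each ungapped 8-mer received an enrichment E-score from the Universal PBM Analysis Suite, averaged over duplicate arrays. The proteins were Tbr T-box DNA-binding domains, covering the whole T-box plus about five flanking residues, fused to GST and expressed in BL21 E. coli at 20 °C before glutathione affinity purification. Universal Agilent oligonucleotide arrays were made double-stranded by primer extension and incubated with 200 nM protein in PBS (pH 7.5). The arrays were then scanned and quantified, and every 8-mer was scored from probe intensities.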

Sequence	PBM E-score of 8-mer
CATTATCC	-0.0633 ± 0.044
CACGGTAC	0.00264 ± 0.0099
GCGTTCTA	-0.0437 ± 0.035
AAAGATGG	-0.148 ± 0.014
GAAGTATA	0.0277 ± 0.11
GAGCATGA	0.14 ± 0.0078
CCTGCACC	0.153 ± 0.02
CAATCTGA	-0.242 ± 0.054
CAGCTCAC	0.14 ± 0.0033
CTTTGTCC	0.109 ± 0.0064
ACCCCGCC	0.119 ± 0.051
ACCAACAG	0.127 ± 0.018
CCCGCCCA	0.0932 ± 0.075
AACCTGGT	0.025 ± 0.064
ACTAGCCT	-0.0251 ± 0.036
ACCAGGAA	-0.145 ± 0.072
ACACCCCT	0.4 ± 0.027
GCGTACCA	-0.168 ± 0.014
AGTGGCGC	0.242 ± 0.02
GGCAGACC	-0.184 ± 0.061
AGGGTGTG	0.43 ± 0.027
GAGTCGGC	-0.126 ± 0.033
ACCTTCGT	0.268 ± 0.026
CGTCAGAA	0.0686 ± 0.037
CTCTTTCA	0.114 ± 0.054

Sequence	PBM E-score of 8-mer
CTCCATGC	-0.036 ± 0.11
AAATGCTT	-0.0118 ± 0.11
AATCCGCC	-0.0827 ± 0.037
CCGATCGG	0.0432 ± 0.047
TCAGCACA	0.179 ± 0.015
ACGGATGA	-0.141 ± 0.037
ATCCAGAT	-0.0794 ± 0.027
ACGTTAGT	-0.0518 ± 0.04
CCCCTTCA	-0.236 ± 0.03
GTTCGGAA	-0.052 ± 0.074
GGCTAGGA	-0.184 ± 0.03
ACTGACTC	-0.00199 ± 0.0047
GATCCATA	-0.332 ± 0.032
GAACGCCA	0.0259 ± 0.069
ACCCGGTA	-0.0268 ± 0.0011
TGCTTGAA	-0.172 ± 0.088
CTGAGGTC	-0.0761 ± 0.022
CAAGTGAC	0.325 ± 0.021
CTGGGTTA	-0.119 ± 0.027
GAGGTTCC	-0.156 ± 0.0053
CCTCTTGC	0.0502 ± 0.011
AAAGCTAT	-0.204 ± 0.025
CATAGAGC	-0.00675 ± 0.012
AATGCACC	0.0196 ± 0.12
CTGGAAGC	-0.212 ± 0.051

Sequence	PBM E-score of 8-mer
AATTAACC	-0.187 ± 0.072
ATACGACA	0.174 ± 0.071
ATAAGAAT	0.0516 ± 0.12
AAAGGCCA	-0.118 ± 0.038
AGCAACGC	0.173 ± 0.041
ACATTACA	-0.0558 ± 0.034
ACCAGTAA	-0.14 ± 0.018
GGCCTCAC	0.00634 ± 0.045
AAACTGTG	0.207 ± 0.013
GATGACAA	0.202 ± 0.017
AGGCGCTC	-0.0321 ± 0.061
GCGAACAC	0.319 ± 0.013
CCTTGCAG	-0.0559 ± 0.093
TAACTCAA	-0.209 ± 0.0068
ATCTGCTG	0.0577 ± 0.084
ATATGCGA	0.106 ± 0.023
CCAGGGGC	-0.0978 ± 0.12
CTCCCCCA	-0.0388 ± 0.04
CTCACCTC	0.449 ± 0.009
CCTCGGGC	0.0293 ± 0.059
CCACATTA	0.126 ± 0.0023
ACGGAGGA	-0.11 ± 0.055
CGCGAGTA	0.281 ± 0.0075
AACGACGG	-0.0314 ± 0.013
CATTGTGA	0.12 ± 0.045

Sequence	PBM E-score of 8-mer
CTAGTCGA	0.146 ± 0.032
ACCAGACA	-0.0847 ± 0.055
GACCATGA	-0.209 ± 0.053
CTGAACCA	-0.0413 ± 0.037
TGAATCCA	-0.14 ± 0.054
CAACGAGC	-0.0764 ± 0.048
AATCGTGC	0.184 ± 0.035
GTCCAAAA	-0.155 ± 0.015
AAAAAGTC	-0.216 ± 0.059
AACGACAT	0.0687 ± 0.0068
TGCAGACA	-0.0393 ± 0.082
AAGGCTGC	-0.0964 ± 0.003
CTTTCAGA	-0.0421 ± 0.042
CGACGGCG	0.135 ± 0.045
ACTTACCT	0.125 ± 0.053
CGCCAATA	0.153 ± 0.015
AATGCCTA	-0.00871 ± 0.019
GAAGTAAA	-0.2785 ± 0.001
AGTGAGAC	0.251 ± 0.023
TCATGGGA	-0.216 ± 0.025
CTAGGCGC	0.128 ± 0.0018
CTATACCA	-0.205 ± 0.013
CGAGTCAG	-0.0412 ± 0.051
AACTTGAT	-0.215 ± 0.015
GGACGTAC	-0.215 ± 0.011

Sequence	PBM E-score of 8-mer
AGTAGTAT	-0.133 ± 0.021
ACAGCAGC	0.0435 ± 0.039
CACTCCAG	0.156 ± 0.04
CAGCTGAG	0.0178 ± 0.036
CATTTCTC	0.198 ± 0.05
TGAGAAAA	0.271 ± 0.098
GCACTGCC	-0.0126 ± 0.026
AACCCCCA	-0.166 ± 0.035
AAACCGAT	-0.0542 ± 0.0059
CAGCGGCC	-0.149 ± 0.076
GCGGCTCA	-0.0885 ± 0.072
CGTTATAG	-0.153 ± 0.018
ATGTGGTG	0.186 ± 0.013
ACAACAGA	-0.0956 ± 0.033
ACATATCG	0.0131 ± 0.017
TACCCGAA	-0.218 ± 0.025
CGCACCTA	0.422 ± 0.0048
CGTACTTC	-0.1764 ± 0.00051
ATAGGCAG	-0.223 ± 0.014
GAGGTTCA	-0.0519 ± 0.054
AACTTATC	0.0676 ± 0.1
ATCACCCC	0.289 ± 0.028
AGCCCAGA	-0.0817 ± 0.013
CCTAGCCG	-0.0395 ± 0.018
CTAAAAAC	-0.109 ± 0.062

Sequence	PBM E-score of 8-mer
GCGCGTCC	0.0283 ± 0.0097
TCGTGTCA	0.305 ± 0.0037
ACTGATTA	-0.122 ± 0.037
AAACTATG	-0.157 ± 0.0096
ACGTTAAA	-0.118 ± 0.0082
CCCTGCGC	0.115 ± 0.035
CCACGTAG	0.122 ± 0.067
CGTTAAAG	0.0719 ± 0.05
CGTGCTTC	-0.135 ± 0.044
GCGCTTCA	0.0829 ± 0.026
AAGGGGCG	0.117 ± 0.025
AAGACCAA	-0.21 ± 0.041
GAGACTGC	-0.126 ± 0.047
CGAAGCTA	-0.163 ± 0.003
GCAACAAA	0.0977 ± 0.037
CGCCTCTA	0.109 ± 0.021
CCGACAGA	0.14 ± 0.039
CCCCACAA	0.168 ± 0.04
ATGCTTGC	-0.00782 ± 0.049
ACATTACG	0.0527 ± 0.019
CTGTACAG	-0.0973 ± 0.04
AGGATCCT	0.077 ± 0.074
CTTTGGGA	-0.0906 ± 0.0035
CGGCGCCC	-0.0887 ± 0.1
ATCGGGGA	-0.344 ± 0.057

Sequence	PBM E-score of 8-mer
AGCGGATA	-0.0522 ± 0.025
CGGCTCTC	-0.162 ± 0.11
GAGCTCAA	-0.187 ± 0.0035
ACGTTCCT	-0.053 ± 0.11
CTAACAAG	0.198 ± 0.019
GGAATACA	-0.178 ± 0.07
ACCAAGAG	0.061 ± 0.015
AGAGGCGC	0.22 ± 0.016
ACGACCAC	-0.0751 ± 0.033
GGCTAGAA	-0.114 ± 0.04
ACGCCCCT	0.184 ± 0.026
AGAGTGAA	0.0596 ± 0.056
CTCGCTTC	0.0925 ± 0.0047
ACGGTAGC	0.0857 ± 0.071
ACATATGG	0.139 ± 0.0049
GGCGCAGA	-0.0539 ± 0.045
CTACAACC	-0.0546 ± 0.02
AACGTCGA	-0.151 ± 0.011
CAAACGTG	0.274 ± 0.017
TAGCATAA	-0.089 ± 0.025
CACAATAG	0.0919 ± 0.0084
GGCCGGAA	-0.18 ± 0.0071
AAGACGGG	-0.179 ± 0.056
GACCGTAA	-0.13205 ± 5.7e-05
AGACGGAC	-0.261 ± 0.022

Sequence	PBM E-score of 8-mer
CAGCTCTC	-0.0593 ± 0.0051
CAGCAGTA	-0.0761 ± 0.041
GCATTACC	-0.186 ± 0.036
AAATCTTG	-0.102 ± 0.11
TAGGACTA	-0.158 ± 0.13
ATCCCCCA	-0.0931 ± 0.074
GCCTAAGC	-0.212 ± 0.043
ACTGGAAG	-0.188 ± 0.031
GAACGCCC	0.138 ± 0.037
AATTACGT	-0.0719 ± 0.11
ATGTGATA	0.298 ± 0.048
AATTTGGC	0.156 ± 0.079
ACGAGCGC	-0.11 ± 0.027
ATTCGCCG	0.0106 ± 0.035
CGACACCA	0.414 ± 0.01
CGCGTAAG	0.168 ± 0.016
CAATTATC	0.162 ± 0.081
GTAGCGAA	0.0587 ± 0.064
CAGCGCCA	0.109 ± 0.028
TCTTTAAA	-0.155 ± 0.027
AGGGTTTA	-0.108 ± 0.0047
ATTGAGGG	-0.234 ± 0.015
CCGCTCCC	-0.00331 ± 0.029
AGACTCAC	0.14 ± 0.0049
ATAAGTAT	-0.123 ± 0.12

Sequence	PBM E-score of 8-mer
ATATCTAG	-0.224 ± 0.043
CTTCGTTA	0.0494 ± 0.024
CAGGTTAG	-0.00261 ± 0.011
CGGCCGCC	0.0148 ± 0.075
AATTGTGC	0.18 ± 0.014
CCTATCGA	0.0766 ± 0.026
CTCCCACC	0.319 ± 0.02
CGTCAGGC	0.0046 ± 0.028
GAGGCCGA	-0.169 ± 0.067
GATGCCAA	-0.123 ± 0.025
CGTGCTCA	-0.0409 ± 0.08
CCACGACG	0.0726 ± 0.039
GCGTACGA	-0.218 ± 0.076
TAATAGGA	-0.236 ± 0.026
CGTCTAGA	-0.204 ± 0.036
ACTTTATG	0.106 ± 0.044
TGACCACA	0.144 ± 0.017
GGCCGGCA	-0.135 ± 0.029
CGCACTCA	0.161 ± 0.074

Source: the supplement of paper PMC4166925
